In all, about 410,000 compounds went through this assay and about 6,400 (1.6%) were called active. The inconclusive results got no clear call from the source; some entries with a clear call stand among them for comparison. Calls follow the shape of the dose curve; as a rule, active = well fitted inhibition curve with a large enough effect; inconclusive = small, poorly fitted or top-dose-only effect; inactive = no such curve, though single readings can be large or run the other way. No potency is given beside an inconclusive call; the fits are too rough.
What follows are compounds tested against Glucagon-like peptide 1 receptor (Homo sapiens) (UniProt P43220) (assay: qHTS of GLP-1 Receptor Inverse Agonists (Inhibition Mode)). Settings: HEK293 GLP-1R CRE-luciferase, luminescence, 24 h, GLP-1R form is constitutively active; series mostly up to 38.3 µM.
UniProt P43220, sequence (P43220 whole entry, looked up): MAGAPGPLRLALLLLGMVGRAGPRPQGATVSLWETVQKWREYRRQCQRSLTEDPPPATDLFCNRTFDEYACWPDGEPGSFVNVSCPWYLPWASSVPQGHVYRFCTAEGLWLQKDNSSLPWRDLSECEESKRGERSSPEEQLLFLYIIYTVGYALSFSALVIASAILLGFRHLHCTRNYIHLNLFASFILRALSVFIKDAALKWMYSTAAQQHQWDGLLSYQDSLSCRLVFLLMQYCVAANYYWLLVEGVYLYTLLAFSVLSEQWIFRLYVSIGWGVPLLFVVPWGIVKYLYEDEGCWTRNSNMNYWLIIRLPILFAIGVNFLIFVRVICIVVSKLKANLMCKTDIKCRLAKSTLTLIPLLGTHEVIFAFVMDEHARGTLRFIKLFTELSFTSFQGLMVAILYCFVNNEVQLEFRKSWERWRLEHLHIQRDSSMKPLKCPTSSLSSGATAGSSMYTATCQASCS
Summary of the method: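 HEK293 cells stably co-expressing constitutively active GLP-1R and a cAMP-responsive luciferase reporter were seeded in DMEM with 10% Nu serum, given compounds after 12 h, and incubated 24 h at 37 deg C. Luminescence was then read.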
In the case of `CC(C)CNS(=O)(=O)c1ccc(CCC(=O)NCCC2=CCCCC2)cc1`, the Potency is reported as inconclusive [inhibitor, partial curve, poor fit].
`Cn1c(N2CCN(C(c3ccccc3)c3ccccc3)CC2)nc2ccccc21` was tested, and the Potency was inconclusive [inhibitor, partial curve, poor fit].
With `CN(Cc1ccno1)Cc1cn(C)nc1-c1ccc(Oc2ccccc2)cc1` the Potency was inconclusive [inhibitor, single point].
For `COc1ccc(NC(=O)Cn2c(SCc3ccc(C)cc3)nc3cccnc32)c(OC)c1`, the Potency was “inactive”.
With `C[C@@]12CC(=O)NC1N(C(=O)c1cccc(C(F)(F)F)c1)C(c1ccccc1OC(=O)c1cccc(C(F)(F)F)c1)C2` (some centres not stated) the Potency was inconclusive [inhibitor, single point].
In the case of `O=[N+]([O-])c1ccc(C2Nc3cccc4cccc(c34)N2)cc1`, the Potency is reported as “inactive”.
For `O=C(Nc1ccccc1F)c1ccc(Cn2cc(Cl)cn2)cc1`, the Potency was inconclusive [inhibitor, partial curve].
In the case of `CC(C)N(C(=O)COC(=O)c1ccccc1C(=O)c1ccc(Cl)c([N+](=O)[O-])c1)C(C)C`, the Potency is reported as inconclusive [inhibitor, single point].
In the case of `COc1ccc(-c2nc(NC(=O)c3ccc(OCC(=O)Nc4ccc(F)cc4)c(OC)c3)sc2C)cc1`, the Potency is reported as inconclusive [inhibitor, partial curve, poor fit].
`CCc1c(C)nc2cc(-c3ccc(OC)cc3)[nH]n2c1=O` was tested, and the Potency was “inactive”.
`O=C(CN(Cc1ccco1)C(=O)CNS(=O)(=O)c1ccc(Cl)cc1)NCc1ccc(F)cc1` was tested, and the Potency was inconclusive [inhibitor, partial curve, poor fit].
With `C[C@@H]1CN([C@H](C)CO)C(=O)CCCn2nncc2CO[C@H]1CN(C)S(=O)(=O)c1ccccc1` the Potency was “inactive”.
With `Cc1ccccc1NC(=O)c1ccc(OCC(=O)Nc2ccccc2F)cc1` the Potency was “inactive”.
`CSc1cccc(CN2CCN(Cc3ccccc3)C(CCO)C2)c1` (configuration not stated) was tested, and the Potency was “inactive”.
In the case of `CCNC(=S)Nc1cc(Cl)ccc1Oc1ccccc1`, the Potency is reported as inconclusive [inhibitor, single point].
`O=C(Nc1ccc(Br)cn1)c1cccc2c1-c1ccccc1C2=O` was tested, and the Potency was inconclusive [inhibitor, full curve, poor fit].
In the case of `CCCCCC(O)c1cccc(OCc2ccc3ccccc3n2)c1` (configuration not stated), the Potency is reported as inconclusive [inhibitor, single point].
In the case of `N[C@@H](Cc1ccccc1)C(=O)N1CCC(C(=O)N[C@@H](CCC(=O)O)C(=O)O)CC1`, the Potency is reported as “inactive”.
`N#CC(=C1C=CC(=NO)C(Cl)=C1)c1ccc(Cl)cc1` was tested, and the Potency was inconclusive [inhibitor, single point].
`Nc1cc(-c2ccccc2)ccc1O` was tested, and the Potency was “inactive”.
In the case of `COc1ccc(Cl)cc1NC(=O)NCc1ccco1`, the Potency is reported as inconclusive [inhibitor, single point].
For `O=C(NCC1CCN(Cc2ccccc2Cl)CC1)Nc1cccc(Cl)c1`, the Potency was inconclusive [inhibitor, partial curve, poor fit].
For `COCCn1nnnc1C(c1cc2c(C)cc(C)cc2[nH]c1=O)N1CCCCCC1` (configuration not stated), the Potency was “inactive”.
In the case of `CCOC(=O)C1(Cc2ccccc2)NC(c2ccccc2F)C2C(=O)N(CC)C(=O)C21` (configuration not stated), the Potency is reported as inconclusive [inhibitor, single point].
`CC(=O)NC(c1ccccc1)c1nc(-c2ccc3ccccc3c2)cs1` (configuration not stated) was tested, and the Potency was inconclusive [inhibitor, single point].
In the case of `CS(=O)(=O)N(Cc1ccco1)Cc1ccccc1Cl`, the Potency is reported as inconclusive [inhibitor, partial curve, poor fit].
`CC[C@]12c3[nH]c4cc(-c5ccco5)ccc4c3CCN1C(=O)[C@@H](CC(=O)NCc1cccc(C(F)(F)F)c1)C[C@@H]2C(=O)N1CCN(C(=O)c2ccco2)CC1` was tested, and the Potency was inconclusive [inhibitor, single point].
`COc1ccc(CN(CCC(c2ccccc2)C2CCOC(C)(C)C2)C(C)=O)cc1` (configuration not stated) was tested, and the Potency was inconclusive [inhibitor, single point].
In the case of `COc1cccc(-c2coc3c(C)c4oc(=O)c(CCC(=O)O)c(C)c4cc23)c1`, the Potency is reported as “inactive”.
With `CC(C)CN1C(=O)N(c2ccc(Cl)cc2)C(C)(O)CC1(C)C` (configuration not stated) the Potency was inconclusive [inhibitor, partial curve, poor fit].
For `CCCn1c(C(O)c2ccc(OC)cc2)nc2ccccc21` (configuration not stated), the Potency was inconclusive [inhibitor, single point].
For `Cn1c(COc2ccc(Br)cc2)nnc1SC1CCc2ccccc2C1=O` (configuration not stated), the Potency was inconclusive [inhibitor, partial curve, poor fit].
In the case of `CCCCn1nc2cc(C(=O)NCc3ccc(C(F)(F)F)cc3C(F)(F)F)ccc2c1OCC`, the Potency is reported as inconclusive [inhibitor, partial curve, poor fit].
For `Nc1nonc1C(=O)N/N=C/c1ccc(Br)o1`, the Potency was “inactive”.
`Cc1ccc(SCCNC(=O)c2ccc([N+](=O)[O-])c(C)c2)cc1` was tested, and the Potency was inconclusive [inhibitor, single point].
`O=C(Nc1ccccc1Cl)c1cc(=O)c2ccccc2o1` was tested, and the Potency was “inactive”.
For `COc1cc(C2Nc3cccc4cccc(c34)N2)cc(OC)c1OC(C)=O`, the Potency was “inactive”.
`COc1ccccc1CNC(=O)c1oc2ccccc2c1C` was tested, and the Potency was inconclusive [inhibitor, single point].
For `COc1cc(CN2CC(=O)N(c3ccccc3Cl)C2=S)cc(OC)c1OC`, the Potency was inconclusive [inhibitor, single point].
For `CN1/C(=C\C(=O)COC(=O)c2ccc(O)c(O)c2)C(C)(C)c2ccccc21`, the Potency was inconclusive [inhibitor, single point].
`CCOc1cc(/C=N/NS(=O)(=O)c2ccccc2)ccc1OS(=O)(=O)c1ccc(C)cc1` was tested, and the Potency was active: 8.91 µM.
`Cc1cccc(NC(=O)CCn2nc(-c3ccccc3)c3ccccc3c2=O)c1` was tested, and the Potency was inconclusive [inhibitor, single point].
`CC12CCC(C(=O)N(c3cccc(Cl)c3)C1=O)C2(C)C` (configuration not stated) was tested, and the Potency was inconclusive [inhibitor, single point].
`NS(=O)(=O)c1ccc(CCNCc2ccccc2OCc2ccc(Cl)cc2)cc1` was tested, and the Potency was active: 7.94 µM.
For `CCN(CC)C(=O)Oc1ccc(Cl)c2cccnc12`, the Potency was “inactive”.
For `CC1(c2ccccc2)NC(=O)N(CC(=O)Nc2ccc(Cl)c(S(=O)(=O)N3CCCCC3)c2)C1=O` (configuration not stated), the Potency was inconclusive [inhibitor, single point].
`Cc1oc(-c2ccc(Cl)cc2)cc1C(=O)N1CCC1(C)C(=O)O` (configuration not stated) was tested, and the Potency was “inactive”.
In the case of `COCCn1c(Cc2ccccc2)nnc1SCC(=O)N1CCCCC1C` (configuration not stated), the Potency is reported as inconclusive [inhibitor, partial curve, poor fit].
In the case of `NS(=O)(=O)c1ccc(CNC(=S)NC2CCCC2)cc1`, the Potency is reported as “inactive”.
`Cc1ccc(-c2nn(-c3ccccc3)c3[nH]c(=O)c(CNCc4ccccc4)cc23)cc1` was tested, and the Potency was inconclusive [inhibitor, single point].
`CC(C)[C@H](NS(=O)(=O)c1ccccc1)C(=O)OCn1nnc2ccccc2c1=O` was tested, and the Potency was inconclusive [inhibitor, full curve].
`O=C(CCCc1ccccc1)Nc1ccnn1C1CCN(Cc2ccc(Cl)cc2)CC1` was tested, and the Potency was inconclusive [inhibitor, partial curve, poor fit].
For `COc1ccc(C2CC23N=C(c2ccccc2)OC3=O)cc1` (configuration not stated), the Potency was “inactive”.
In the case of `COc1ccc2[nH]c(=O)c(CN(CCCN3CCOCC3)C(=O)NCc3ccccc3)cc2c1`, the Potency is reported as “inactive”.
For `NC(=S)N/N=C/c1ccc(C(F)(F)F)cc1`, the Potency was inconclusive [inhibitor, partial curve].
For `O=C(Nc1cccc(S(=O)(=O)N2CCCCC2)c1)c1ccc(Cl)nc1`, the Potency was inconclusive [inhibitor, partial curve, poor fit].
In the case of `FC(F)(F)c1nc2ccccc2n2c(-c3ccc(Cl)cc3)nnc12`, the Potency is reported as inconclusive [inhibitor, partial curve, poor fit].
`CC1CC(C)CN(S(=O)(=O)c2ccc(C(=O)NCCCn3ccnc3)cc2)C1` (configuration not stated) was tested, and the Potency was inconclusive [inhibitor, single point].
In the case of `CC(=O)c1ccc(N2CCN(S(=O)(=O)c3ccc(-c4cc(C)no4)s3)CC2)cc1`, the Potency is reported as “inactive”.
In the case of `O=[N+]([O-])c1cc(S(=O)(=O)C(F)(F)F)ccc1Sc1nc2ccccc2s1`, the Potency is reported as inconclusive [inhibitor, partial curve, poor fit].
For `COc1ccc(CCNC(=O)c2ccc3c(c2)N(Cc2ccc(Cl)cc2)CCS3)c(OC)c1`, the Potency was inconclusive [inhibitor, partial curve].
With `CN1CCCCCC1=Nc1ccccc1C#N` the Potency was inconclusive [inhibitor, single point].
For `O=C1C(C2=C(O)c3ccccc3C2=O)=Nc2ccccc21`, the Potency was “inactive”.
In the case of `Cc1ccc2c(CC(=O)N3CCN(c4ccccc4)CC3)coc2c1`, the Potency is reported as inconclusive [inhibitor, partial curve, poor fit].
With `CC(NC(=O)c1cc(COc2c(F)cccc2F)on1)c1cnn(-c2ccccc2)c1` (configuration not stated) the Potency was inconclusive [inhibitor, single point].
`O=S(=O)(c1ccc2nc(COc3ccc(Cl)cc3Cl)[nH]c2c1)N1CCOCC1` was tested, and the Potency was inconclusive [inhibitor, single point].
With `COc1ccc2c(c1OC)C(=O)N1c3ccccc3C(=O)N(c3ccccc3F)C21` (configuration not stated) the Potency was inconclusive [inhibitor, partial curve, poor fit].

— PubChem BioAssay AID624417 (National Center for Advancing Translational Sciences (NCATS), 2012)
Also: nearly all actives have a fitted effect of over 55% in size.
Potency is read from the fitted curve at half-maximal effect; tags tell the direction and shape of the fitted curve.
